1 molecule from article PMC5708895, “Time-gated detection of protein-protein interactions with transcriptional readout” (eLife, 2017) can be followed below.

For this assay, the target named is T1, β2AR-eLOV-TEVcs-FLAG-GAL4-V5 (UniProt P07550).
T1 construct: also called P6; β2AR SPARK TF component; source: HEK293T, transiently transfected, in cells
The assay is described as follows: SPARK with FACS and RT-qPCR (model selection). Particulars: partners not purified.

B1: Rat-β-arrestin2-HA-TEVp Δ[…] (natural protein)
chain: not shown
notes: also called P4; P5
For B1, the “fold enrichment by FACS of cells with the matched pair over cells with the mismatched pair (β2AR-calmodulin)” value stood at 51 fold.
